# PubChem BioAssay (NCATS)
# Values joined by “and” are separate entries in the source; they are usually repeats but may differ in a detail not shown here. Equal entries are not always repeated. The inconclusive results got no clear call from the source; some entries with a clear call stand among them for comparison. A potency beside an inconclusive call is a rough fit, not a confirmed value. Active and inactive are the calls of the source. Calls come from the whole dose curve; as a rule, active = well fitted cell-killing curve with a large enough effect; inconclusive = small, poorly fitted or top-dose-only effect, or effect the other way; inactive = flat fitted curve, though single readings scatter.
# Columns and labels:
# Assay in all cases: Primary qHTS to identify gynecologic anti-cancer compounds using libraries of approved drugs and bioactive compounds (AID 1345084); note: nearly all actives have a fitted effect of over 55% in size
# Hek293T = settings: Gynecologic cancer cell panel viability, ATPlite luminescence, 48 h, control line for the selectivity index; series mostly up to 57.5 µM
# Procedure, shortened: (§1)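 Cell viability after 48 h drug treatment, ATPlite luminescence readout; five doses.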
# JEG-3 = settings: Gynecologic cancer cell panel viability, ATPlite luminescence, 48 h; series mostly up to 57.5 µM
# Procedure, shortened: as §1
# OV90 = settings: Gynecologic cancer cell panel viability, ATPlite luminescence, 48 h; series mostly up to 57.5 µM
# Procedure, shortened: as §1
# PA-1 = settings: Gynecologic cancer cell panel viability, ATPlite luminescence, 48 h; series mostly up to 57.5 µM
# Procedure, shortened: as §1
# SKOV3 = settings: Gynecologic cancer cell panel viability, ATPlite luminescence, 48 h; series mostly up to 57.5 µM
# Procedure, shortened: as §1
# Tov-21-G = settings: Gynecologic cancer cell panel viability, ATPlite luminescence, 48 h; series mostly up to 57.5 µM
# Procedure, shortened: as §1
# Tov112D = settings: Gynecologic cancer cell panel viability, ATPlite luminescence, 48 h; series mostly up to 57.5 µM
# Procedure, shortened: as §1
# Potency is the fitted concentration of half-maximal effect; tags give direction and shape of the fitted curve.
SMILES,Potency (Hek293T),Potency (JEG-3),Potency (OV90),Potency (PA-1),Potency (SKOV3),Potency (Tov-21-G),Potency (Tov112D)
N#CCNC(=O)c1ccc(-c2ccnc(Nc3ccc(N4CCOCC4)cc3)n2)cc1,"inconclusive: 28.2 µM [cytotoxic, single point]","inconclusive: 3.16 µM [cytotoxic, full curve, poor fit]","inconclusive: 25.1 µM [cytotoxic, single point]",active: 14.1 µM,"inconclusive: 14.1 µM [cytotoxic, partial curve]",active: 14.1 µM,
C[C@@H](Oc1cc(-c2cnn(C3CCNCC3)c2)cnc1N)c1c(Cl)ccc(F)c1Cl,"active: 25.1 µM and inconclusive: 39.8 µM [cytotoxic, single point]","active: 28.2 µM and inconclusive: 39.8 µM [cytotoxic, single point]",active: 25.1 µM,"inconclusive: 8.91 µM [cytotoxic, partial curve, poor fit] and active: 14.1 µM","inconclusive: 22.4 µM [cytotoxic, single point] and inconclusive: 39.8 µM [cytotoxic, single point]","active: 14.1 µM and inconclusive: 12.6 µM [cytotoxic, partial curve]","inconclusive: 39.8 µM [cytotoxic, single point]"
Nc1ccc2cc3ccc(N)cc3nc2c1,active: 6.31 µM,"inconclusive: 25.1 µM [cytotoxic, single point]",,active: 7.94 µM,"inconclusive: 12.6 µM [cytotoxic, partial curve, poor fit]","inconclusive: 17.8 µM [cytotoxic, partial curve, poor fit]",active: 28.2 µM
c1ccc2c(CCNc3ccc(Nc4ccncc4)cc3)c[nH]c2c1,"inconclusive: 12.6 µM [cytotoxic, partial curve, poor fit]",,"inconclusive: 10 µM [cytotoxic, partial curve]",active: 10 µM,"inconclusive: 12.6 µM [cytotoxic, partial curve, poor fit]",inactive,"inconclusive: 7.08 µM [cytotoxic, partial curve]"
OCCN1CCN(CCCN2c3ccccc3Sc3ccc(Cl)cc32)CC1,"inconclusive: 35.5 µM [cytotoxic, single point]","inconclusive: 35.5 µM [cytotoxic, single point]",,"inconclusive: 28.2 µM [cytotoxic, single point]",active: 28.2 µM,"inconclusive: 31.6 µM [cytotoxic, single point]",
CCCCCN=C(N)N/N=C/c1c[nH]c2ccc(OC)cc12,"inconclusive: 39.8 µM [cytotoxic, single point]","inconclusive: 28.2 µM [cytotoxic, single point]",,"inconclusive: 31.6 µM [cytotoxic, single point]","inconclusive: 35.5 µM [cytotoxic, single point]","inconclusive: 39.8 µM [cytotoxic, single point]",active: 35.5 µM
Oc1ccc(Cl)cc1Sc1cc(Cl)ccc1O,"inconclusive: 39.8 µM [cytotoxic, single point]","inconclusive: 35.5 µM [cytotoxic, partial curve]",,"inconclusive: 31.6 µM [cytotoxic, single point]",,"inconclusive: 39.8 µM [cytotoxic, partial curve, poor fit]","inconclusive: 28.2 µM [cytotoxic, single point]"
C[C@@H]1COC(Nc2ccc3ncnc(Nc4ccc(OCc5nccs5)c(Cl)c4)c3c2)=N1,"inconclusive: 31.6 µM [cytotoxic, single point]",,"inconclusive: 25.1 µM [cytotoxic, single point]","inconclusive: 39.8 µM [cytotoxic, single point]",active: 14.1 µM,"inconclusive: 15.8 µM [cytotoxic, partial curve, poor fit]","inconclusive: 39.8 µM [cytotoxic, single point]"
Cc1ncc(-c2ccnc(Nc3ccc(S(C)(=O)=O)cc3)n2)n1C(C)C,active: 5.01 µM,,"inconclusive: 7.08 µM [cytotoxic, single point]",active: 5.01 µM,"inconclusive: 17.8 µM [cytotoxic, single point]",active: 10 µM,
